Laboratory results reported in PubChem BioAssay AID662 (National Center for Advancing Translational Sciences (NCATS), 2007).
The campaign covered roughly 71,000 compounds. About 1,800 (2.5%) were called active. Inconclusive results, whose numbers are uncertain, are shown with a selection of clear calls. Calls follow the shape of the dose curve; as a rule, active = well fitted activation curve with a large enough effect in the signal ratio, with a control signal flat (not every such curve was filed as active); inconclusive = small, poorly fitted or top-dose-only effect, or effect the other way, or a change in a side signal; inactive = flat fitted curve, though single readings scatter; the % refers to the signal ratio. Where the call is inconclusive, the potency comes from a doubtful curve fit.

Test: Cell signaling CRE-BLA (Fsk stim); as to activity change, negative = inhibition: % of control where 0% means no effect
Conditions: CHO CRE-bla reporter (cAMP response element driving beta-lactamase), forskolin EC10, beta-lactamase ratio; activity change, negative = inhibition: at 38.2 µM (top of the series) unless noted
Outline: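 Titrated compounds plus EC10 NKH 477 on CHO CRE-bla cells, 3 h, 37 °C. CCF4, 2 h RT. Ratio 460/530 nm → AC50.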
Potency is read from the fitted curve at half-maximal effect; tags tell the direction and shape of the fitted curve.

| SMILES | Potency | activity change, negative = inhibition |
| --- | --- | --- |
| O=C(Nc1cccc(Cl)c1N1CCCCC1)c1ccc2c(c1)OCCO2 | inconclusive: 0.501 µM [rising, full curve, poor fit] |  |
| Cc1ccc(-n2c(SCC(=O)Nc3ccc4c(c3)OCCO4)nnc2-c2ccco2)cc1 |  | inconclusive: 22.5% |
| CCn1c2ccccc2c2nnc(SCC(=O)NC(C(=O)OC)C(C)C)nc21 (centres undefined) | inconclusive: 0.398 µM [rising, full curve] |  |
| COC(=O)c1[nH]c2c(c1C)C(=O)CC(c1ccccc1)C2 (centres undefined) | active: 1.58 µM |  |
| COc1ccc(C(=O)N2CCC3(CCCN(Cc4nccs4)C3)CC2)cc1 |  | inactive |
| O=C(Cc1ccccc1I)Nc1ccccc1 |  | inconclusive: 17.1% |
| COC1=C(OC)C(=O)c2ccccc2C1=O |  | inconclusive: -23.1% |
| Cc1ccc(/C(C#N)=C\c2cn(C)c3ccccc23)cc1 |  | inactive |
| FC(F)(F)c1cc(CO[C@@H]2CCCN[C@H]2c2ccccc2)cc(C(F)(F)F)c1 |  | inactive |
| O=C(COc1ccc(Cl)cc1Cl)N(Cc1ccco1)C1CCS(=O)(=O)C1 (centres undefined) |  | inactive |
| CCCCn1c(SCC(=O)N2CCN(c3ccccc3)CC2)nc2ccsc2c1=O |  | inconclusive: 24.8% |
| O=C(O)c1ccc(CNCc2ccccc2)cc1 |  | inactive: -0.295% [at 7.6 µM] |
| Cc1nc2sc(C(c3cccs3)N3CCN(c4ccccc4)CC3)c(O)n2n1 (centres undefined) |  | inactive |
| Cc1nnc(C)n1/N=C/c1cccc(Oc2ccccc2)c1 |  | inactive |
| COC(=O)Nc1ccc2c(c1)N(C(=O)CCN1CCOCC1)c1ccccc1S2 | inconclusive: 15.8 µM [rising, partial curve] |  |
| COc1ccc(N(C)C(=O)Nc2ccc3c(c2)nnn3C)cc1 |  | inactive |
| O=C(Nc1cccc2ccccc12)N1CCN(c2ccc(F)cc2)CC1 |  | inactive |
| CC(C)(C)n1ncc2c(=O)n(CC(=O)N3CCN(c4ccccc4)CC3)cnc21 |  | inconclusive: 5.77% |
| COc1ccc(-c2nnn(CC(=O)N(CC(=O)NCCC(C)C)Cc3cccs3)n2)cc1OC | inconclusive: 12.6 µM [rising, partial curve] |  |
| CN(C)C(=O)c1ccc(-c2cc(-n3ccnc3)ncn2)cc1 |  | inactive |
| CCOC(=O)C1CCCN(C(=O)COC(=O)C2=COCCO2)C1 (centres undefined) |  | inactive |

| SMILES | Potency | activity change, negative = inhibition |
| --- | --- | --- |
| COc1cc(C(=O)NCCc2cn3ccccc3n2)cc(OC)c1OC | inconclusive: 10 µM [rising, partial curve] |  |
| COc1cccc(C2C=C(c3ccc(Br)s3)Nc3ncnn32)c1OC (centres undefined) | inconclusive: 12.6 µM [falling, partial curve] |  |
| c1ccc(B2OC[C@@H]3OB(c4ccccc4)O[C@H]([C@@H]4COB(c5ccccc5)O4)[C@@H]3O2)cc1 |  | inactive: 3.05% [at 7.6 µM] |
| CN(C)c1ccc(-c2nn3c(-c4ccccc4Cl)nnc3s2)cc1 | active: 2.51 µM |  |
| O=c1[nH]c(-c2ccccc2O)nc2c1CCCC2 |  | inconclusive: 11.3% |
| O=C(O)c1cn[nH]c1-n1cnnn1 |  | inactive |
| CNc1nc(-c2ccccc2Cl)nc2ccccc12 |  | inconclusive: 27.1% |
| O=C(c1csnn1)N1CCC2(CCCN(c3ccccc3)C2)CC1 |  | inactive |
| Cc1c(O)cccc1C(=O)N[C@@H](CSc1ccccc1)[C@H](O)CN1C[C@H]2CCCC[C@H]2C[C@H]1C(=O)NC(C)(C)C | inconclusive: 1.58 µM [falling, full curve] |  |
| N#Cc1ccccc1Cn1c(-c2cscn2)nc2ccccc21 | inconclusive: 0.126 µM [rising, full curve] |  |
| c1ccc(-c2ccc(OCCCn3cncn3)cc2)cc1 |  | inconclusive: 15.9% |
| COc1cc(Br)cc(-c2nc3c(c(=O)[nH]c(=O)n3Cc3ccccc3)n2C)c1O | inconclusive: 5.01 µM [rising, partial curve] |  |
| O=C(CSc1nnc(-c2cccnc2)n1Cc1ccco1)N1c2ccccc2Sc2ccccc21 |  | inconclusive: 16.5% |
| Cc1nc2ccc(NC3=NCCCCC3)cc2s1 | inconclusive: 3.98 µM [falling, single point] |  |
| CCn1c(SCC(=O)N2CCN(S(=O)(=O)c3ccccc3)CC2)nnc1-c1cccs1 | inconclusive: 5.01 µM [falling, single point] |  |
| Cc1cc(C)n(-c2nc3ccccc3nc2Nc2ccc(CC(=O)O)cc2)n1 |  | inconclusive: 12.3% |
| COc1ccc(-c2nc3cnc(N4CCOCC4)nc3n(-c3ccc(OC)cc3)c2=O)cc1 | inconclusive: 6.31 µM [rising, partial curve] |  |
| COc1ccc(CCNc2cc(=O)[nH]c(N)n2)cc1 | inconclusive: 12.6 µM [rising, single point] |  |
| CCCn1c(C)nc2c(NCCN3CCCC3)nc(C)nc21 |  | inconclusive: 29.2% |
| COc1cccc2cc(C(=O)NC3CC(C)(C)NC(C)(C)C3)c(=O)oc12 |  | inconclusive: -3.25% |
| NCCc1nnc(SCc2ccccc2F)o1 | inconclusive: 10 µM [rising, single point] |  |

| SMILES | Potency | activity change, negative = inhibition |
| --- | --- | --- |
| N#CC(C#SN)=C1CCCCC1 |  | inconclusive: 20.1% |
| CCOc1ccc(-c2nc(C#N)c(N3CCCCCC3)o2)cc1 | inconclusive: 10 µM [rising, partial curve] |  |
| O=C(O)C1CC(=O)N(Cc2ccc3c(c2)OCO3)C1 (centres undefined) |  | inconclusive: -22.5% |
| O=C1CC(c2ccc(F)cc2)CC(O)=C1C=NCCN1CCN(C(=O)Nc2ccccc2)CC1 (centres undefined) |  | inconclusive: -3.02% |
| Cc1occc1-c1nnc(SCC(=O)N2c3ccccc3CCc3ccccc32)n1C | inconclusive: 0.1 µM [rising, single point] |  |
| N#Cc1cccc(NC(=O)COc2ccc(-n3ccnc3)cc2)c1 |  | inconclusive: -12.5% |
| Cc1nc(N2CCOCC2)[nH]c(=O)c1CCC(C)C |  | inconclusive: -6.12% |
| CC[C@H]1C2=C3C(CC[C@H]4C(OCc5ccc(F)cc5C(F)(F)F)OC[C@](C)([C@@H]34)N(C(=O)OC(C)(C)C)C2)C2COC(=O)OCC21 (some centres undefined) |  | inactive |
| c1cc(-n2cnnn2)ccc1NC1=NCCC1 | inconclusive: 10 µM [falling, partial curve] |  |
| CC(C)OC(=O)c1c(NC(=O)c2cccs2)sc2c1CCCC2 | inconclusive: 10 µM [rising, partial curve] |  |
| c1ccc(CCn2nnnc2C(c2cccs2)N2CCOCC2)cc1 (centres undefined) |  | inactive |
| CC(=O)NC(CCS(C)(=O)=O)C(=O)Nc1ccc(Oc2ccccc2)cc1 (centres undefined) |  | inactive |
| NS(=O)(=O)c1ccc(NC(=O)COC(=O)CSc2n[nH]c(-c3ccccc3)n2)cc1 |  | inconclusive: -7.27% [at 7.6 µM] |
| COC(=O)c1ccc(COC(=O)C23CC4CC(CC(O)(C4)C2)C3)o1 |  | inactive |
| O=C(CN1C(=O)CNC1=O)Nc1cccc(C(F)(F)F)c1 | inconclusive: 10 µM [rising, single point] |  |
| COc1ccc(N=c2oc3cc(O)ccc3cc2C(=O)NCC2CCCO2)c(OC)c1 (centres undefined) | inconclusive: 6.31 µM [rising, partial curve] |  |
| CC(C)CC(=O)NCC(C)NC(=O)CC(C)C (centres undefined) |  | inconclusive: -0.429% |
| CSc1nc(-c2ccco2)nn1C(=O)c1ccc(C)cc1 |  | inconclusive: -17% |
| O=C1C2CCCN2C(c2ccccc2)N1c1ccc(Cl)cc1 (centres undefined) | inconclusive: 0.398 µM [falling, full curve, poor fit] |  |
| CCOC(=O)N1CCN(C(=O)CSCC(=O)N=c2sc3ccccc3n2C)CC1 |  | inconclusive: 8.58% |
| CCOC(=O)c1sc(N)nc1-c1ccccc1 | inconclusive: 12.6 µM [rising, partial curve] |  |

| SMILES | Potency | activity change, negative = inhibition |
| --- | --- | --- |
| CCOC(=O)C1CCN(C(=O)c2ccc3c(c2)OCO3)CC1 |  | inconclusive: -10.9% |
| COC(=O)c1sccc1NC(=O)C1CC=CCC1C(=O)O (centres undefined) |  | inactive |
| Oc1ccc(Nc2nc(NCC3CCCO3)c3ccccc3n2)cc1 (centres undefined) |  | inactive |
| CC1Cc2ccccc2N1C(=O)CSc1nnc(CSc2ncccn2)n1C (centres undefined) |  | inactive |
| CC(C)COC(=O)COc1cc(Cl)c(Cl)cc1Cl |  | inactive |
| c1ccc2c(c1)OCC(c1nnc3sc(-c4cnccn4)nn13)O2 (centres undefined) |  | inconclusive: -2.47% |
| OC(COc1ccc2ccccc2c1Cl)CN1CCOCC1 (centres undefined) |  | inconclusive: 8.19% |
| CCSC1=NC(=O)/C(=C2/C=Cc3ccccc3N2CC)S1 |  | inactive |
| CCOC(=O)COc1ccc(C2NC(C(=O)O)CS2)cc1 (centres undefined) |  | inconclusive: 12.3% |
| COCCN1Cc2cccc(C(=O)Nc3c(C)cccc3C)c2C1=O |  | inconclusive: -8.55% |
| COc1ccccc1C1C(C(=O)c2sc(C)nc2C)=C(O)C(=O)N1CCN1CCOCC1 (centres undefined) | inconclusive: 3.98 µM [rising, single point] |  |
| O=C(Oc1ccccc1)N1CCC2(CCCN(c3ccccn3)C2)CC1 |  | inconclusive: 9.21% |
| CC(=O)N1CCC2(CCCN(c3ccc(-c4ccccc4)cc3)C2)CC1 |  | inconclusive: 4.6% |
| O=C(NCc1ccc2c(c1)OCO2)c1c[nH]c2ccc(S(=O)(=O)N3CCOCC3)cc2c1=O |  | inactive |
| CCCCN(CC)S(=O)(=O)N1CCC(C(=O)NCCCN2CCOCC2)CC1 |  | inactive |
| CCCN(CCC)CCCNC(=O)c1cc2cc3ccc(OC)cc3nc2o1 |  | inactive |
| O=C(c1cc(-c2ccncc2)nc2ccc(Br)cc12)N1CCN(c2ccccn2)CC1 |  | inconclusive: 42.7% |
| COc1cccc2c(C)nc(Nc3nc(CSc4nnc(C)s4)cc(=O)[nH]3)nc12 | inconclusive: 2 µM [rising, full curve] |  |
| CN1C(=O)c2cccc3c(S(=O)(=O)NCc4ccco4)ccc1c23 |  | inconclusive: 29% |
| COc1ccc(Cl)cc1C(=O)NCC(C)C |  | inactive |
| Cc1cc(N2CCN(C(=O)c3ccco3)CC2)n2nc(C)c(-c3ccccc3)c2n1 | active: 7.94 µM |  |
